# This is one part of the list.
# B1: Surfactant Protein D (Human); Neck + Carbohydrate Recognition Domain (NCRD) (Homo sapiens) (protein)
# chain: MLLFLLSALVLLTQPLGYLEAEMKTYSHRTMPSACTLVMCSSVESGLPGRDRDGREGPRGEKGDPGLPGAAGQAGMPGQAGPVGPKGDNGSVGEPGPKGDTGPSGPPGPPGVPGPAGREGALGKQGNIGPQGKPGPKGEAGPKGEVGAPGMQGSAGARGLAGPKGERGVPGERGVPGNTGAAGSAGAMGPQGSPGARGPPGLKGDKGIPGDKGAKGESGLPDVASLRQQVEALQGQVQHLQAAFSQYKKVELFPNGQSVGEKIFKTAQFVKPFTEAQLLCTQAGGQLASPRSAAENAALQQLVVAKNEAAFLSMTDSKTEGKFTYPTGESLVYSNWAPGEPNDDGGSEDCVEIFTNGKWNDVACGEKRLVVCEF
# Key:
# Experiment in all cases: glycan array binding signal (z-score within array); higher = stronger binding
# Settings in all cases: glycan notation: IUPAC condensed, linker removed; mutation: R343V
# [1] = molecular target: GlcNAc(b1-3)[GlcNAc(b1-6)]GalNAc
# In short: (§1)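 Columns mapping to the same glycan were averaged after glycan names were converted to IUPAC-condensed notation. The data come from 3228 arrays in the Consortium for Functional Glycomics database, limited to those with an available protein sequence. Binding is reported as a within-array Z-score averaged across arrays of one protein sequence and across linkers.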
# [2] = molecular target: GlcNAc(b1-4)Gal(b1-4)GlcNAc
# In short: as §1
# [3] = molecular target: GlcNAc(b1-4)GlcNAc
# In short: as §1
# [4] = molecular target: GlcNAc(b1-4)GlcNAc(b1-4)GlcNAc
# In short: as §1
# [5] = molecular target: GlcNAc(b1-4)GlcNAc(b1-4)GlcNAc(b1-4)GlcNAc(b1-4)GlcNAc
# In short: as §1
# [6] = molecular target: GlcNAc(b1-4)GlcNAc(b1-4)GlcNAc(b1-4)GlcNAc(b1-4)GlcNAc(b1-4)GlcNAc
# In short: as §1
# [7] = molecular target: GlcNAc(b1-4)[GlcNAc(b1-6)]GalNAc
# In short: as §1
# [8] = molecular target: GlcNAc(b1-6)Gal(b1-4)GlcNAc
# In short: as §1
# [9] = molecular target: GlcNAc(b1-6)GalNAc
# In short: as §1
# [10] = molecular target: GlcNAc3Prop(b1-4)GlcNAc
# In short: as §1
# [11] = molecular target: Kdn(a2-3)Gal(b1-3)GlcNAc
# In short: as §1
# [12] = molecular target: Kdn(a2-3)Gal(b1-4)GlcNAc
# In short: as §1
# [13] = molecular target: Man(a1-2)Man(a1-2)Man(a1-3)Man
# In short: as §1
# [14] = molecular target: Man(a1-2)Man(a1-2)Man(a1-6)[Man(a1-3)]Man
# In short: as §1
# [15] = molecular target: Man(a1-2)Man(a1-3)Man
# In short: as §1
# [16] = molecular target: Man(a1-2)Man(a1-3)[Man(a1-2)Man(a1-6)]Man
# In short: as §1
# [17] = molecular target: Man(a1-2)Man(a1-3)[Man(a1-2)Man(a1-6)]Man(a1-6)[Man(a1-2)Man(a1-2)Man(a1-3)]Man
# In short: as §1
# [18] = molecular target: Man(a1-2)Man(a1-3)[Man(a1-2)Man(a1-6)]Man(a1-6)[Man(a1-2)Man(a1-2)Man(a1-3)]Man(b1-4)GlcNAc(b1-4)GlcNAc
# In short: as §1
# [19] = molecular target: Man(a1-2)Man(a1-3)[Man(a1-6)]Man(a1-6)[Man(a1-2)Man(a1-3)]Man(b1-4)GlcNAc(b1-4)GlcNAc
# In short: as §1
# [20] = molecular target: Man(a1-2)Man(a1-6)[Man(a1-3)]Man(a1-6)[Man(a1-2)Man(a1-2)Man(a1-3)]Man
# In short: as §1
# [21] = molecular target: Man(a1-2)Man(a1-6)[Man(a1-3)]Man(a1-6)[Man(a1-2)Man(a1-2)Man(a1-3)]Man(b1-4)GlcNAc(b1-4)GlcNAc
# In short: as §1
# [22] = molecular target: Man(a1-3)[Man(a1-6)]Man
# In short: as §1
# [23] = molecular target: Man(a1-3)[Man(a1-6)]Man(a1-6)[Man(a1-2)Man(a1-3)]Man(b1-4)GlcNAc(b1-4)GlcNAc
# In short: as §1
# [24] = molecular target: Man(a1-3)[Man(a1-6)]Man(a1-6)[Man(a1-3)]Man
# In short: as §1
# [25] = molecular target: Man(a1-3)[Man(a1-6)]Man(a1-6)[Man(a1-3)]Man(b1-4)GlcNAc(b1-4)GlcNAc
# In short: as §1
# [26] = molecular target: Man(a1-3)[Man(a1-6)]Man(b1-4)GlcNAc(b1-4)GlcNAc
# In short: as §1
# [27] = molecular target: Man(a1-6)Man
# In short: as §1
# [28] = molecular target: Man(b1-4)GlcNAc
# In short: as §1
# [29] = molecular target: Neu5Ac(a2-3)Gal
# In short: as §1
# [30] = molecular target: Neu5Ac(a2-3)Gal(b1-3)GalNAc
# In short: as §1
# [31] = molecular target: Neu5Ac(a2-3)Gal(b1-3)GalNAc(b1-3)Gal(a1-4)Gal(b1-4)Glc
# In short: as §1
# [32] = molecular target: Neu5Ac(a2-3)Gal(b1-3)GalNAc(b1-3)Gal(b1-4)GlcNAc
# In short: as §1
# [33] = molecular target: Neu5Ac(a2-3)Gal(b1-3)GalNAc(b1-4)[Neu5Ac(a2-3)]Gal(b1-4)Glc
# In short: as §1
# [34] = molecular target: Neu5Ac(a2-3)Gal(b1-3)GalNAc6S
# In short: as §1
# [35] = molecular target: Neu5Ac(a2-3)Gal(b1-3)GlcNAc
# In short: as §1
# [36] = molecular target: Neu5Ac(a2-3)Gal(b1-3)GlcNAc(b1-3)Gal(b1-3)GlcNAc
# In short: as §1
# [37] = molecular target: Neu5Ac(a2-3)Gal(b1-3)GlcNAc6S
# In short: as §1
# [38] = molecular target: Neu5Ac(a2-3)Gal(b1-3)[Fuc(a1-4)]GlcNAc
# In short: as §1
binder,measurement,setting,value
B1,glycan array binding signal (z-score),[1],2.28
same,glycan array binding signal (z-score),[2],3.13
same,glycan array binding signal (z-score),[3],1.25
same,glycan array binding signal (z-score),[4],1.89
same,glycan array binding signal (z-score),[5],1.26
same,glycan array binding signal (z-score),[6],2.23
same,glycan array binding signal (z-score),[7],2.16
same,glycan array binding signal (z-score),[8],-0.423
same,glycan array binding signal (z-score),[9],-0.416
same,glycan array binding signal (z-score),[10],-0.471
same,glycan array binding signal (z-score),[11],-0.504
same,glycan array binding signal (z-score),[12],-0.424
same,glycan array binding signal (z-score),[13],3.03
same,glycan array binding signal (z-score),[14],2.93
same,glycan array binding signal (z-score),[15],2.67
same,glycan array binding signal (z-score),[16],2.6
same,glycan array binding signal (z-score),[17],2.77
same,glycan array binding signal (z-score),[18],1.19
same,glycan array binding signal (z-score),[19],2.61
same,glycan array binding signal (z-score),[20],2.75
same,glycan array binding signal (z-score),[21],3.01
same,glycan array binding signal (z-score),[22],2.02
same,glycan array binding signal (z-score),[23],3.01
same,glycan array binding signal (z-score),[24],1.9
same,glycan array binding signal (z-score),[25],3.27
same,glycan array binding signal (z-score),[26],2.93
same,glycan array binding signal (z-score),[27],0.192
same,glycan array binding signal (z-score),[28],2.12
same,glycan array binding signal (z-score),[29],-0.401
same,glycan array binding signal (z-score),[30],-0.428
same,glycan array binding signal (z-score),[31],-0.525
same,glycan array binding signal (z-score),[32],-0.482
same,glycan array binding signal (z-score),[33],-0.39
same,glycan array binding signal (z-score),[34],-0.251
same,glycan array binding signal (z-score),[35],-0.447
same,glycan array binding signal (z-score),[36],-0.432
same,glycan array binding signal (z-score),[37],-0.362
same,glycan array binding signal (z-score),[38],-0.48

# Source: the supplement of paper PMC8728848
